In patent publication US20090023667A1 (priority 2005, published 2009):
Like-named read-outs stand apart in the source and are kept apart here.

How the values were obtained:
[1] = test system: small brown planthopper; assay: Test Example 12: insecticidal test on small brown planthopper, spraying test; type: in vivo, Laodelphax striatellus; conditions: small brown planthopper larvae, after 6 days
Description: A compound solution which was prepared by diluting to the prescribed concentration was sprayed on rice seedlings (cultivar: Koshihikari) and air-dried. […] The results are shown in Table 16 (Tables 16-1 to 16-5).

[2] = test system: rice stem borer; conditions: in vivo
[3] = test system: small brown planthopper; conditions: in vivo
[4] = test system: rice stem borer; conditions: in vivo; remark: listed apart in the source
[5] = test system: rice stem borer; conditions: in vivo; remark: listed apart in the source
[6] = Laodelphax striatellus, 144 h, 60 ppm, read-out: Mortality rate
[7] = Laodelphax striatellus, 144 h, read-out: Mortality rate

SMILES: COP(=S)(OC)Oc1ccc([N+](=O)[O-])c(C)c1 [MEP, reference compound]
- Mortality rate ([1]; 500 ppm): 95%

SMILES: Cc1ccc(C(=O)NC(CNC(=O)OC2CCCCC2Cl)C(C)C)cc1 (stereo not shown) [Compound 17, N-(2-chlorocyclohexyloxycarbonyl)-N′-(4-methylbenzoyl)-3-methyl-1,2-butanediamine]
- Mortality rate [2]: 0%
- mortality at 60 ppm [1, 6]: 0%

SMILES: O=[N+]([O-])NC1=NCCN1Cc1ccc(Cl)nc1 [Imidacloprid]
- Mortality rate [3]: 95%

SMILES: COP(=S)(OC)Oc1ccc(SC)c(C)c1 [MPP, reference compound]
- Mortality rate ([1]; 500 ppm): 90%

SMILES: CNC(=O)c1cc(Cl)cc(C)c1NC(=O)c1cc(Br)nn1-c1ncccc1Cl [Compound 102, reference compound]
- Mortality rate [2]: 95%

SMILES: CC(C)C(CNC(=O)c1cc2ccccc2s1)NC(=O)OCC(F)(F)F (stereo not shown) [Compound 34]
- Mortality rate ([1]; 60 ppm): 0%

SMILES: CC(C)C(CNC(=O)c1cc2ccccc2o1)NC(=O)OCC(F)(F)F (stereo not shown) [Compound 28]
- Mortality rate ([1]; 60 ppm): 0%

SMILES: C=C(Cl)COC(=O)NC(CNC(=O)c1ccc(C)cc1)C(C)C (stereo not shown) [Compound 15]
- Mortality rate ([1]; 60 ppm): 0%

SMILES: Cc1ccc(C(=O)NCC(NC(=O)OCC(F)(F)F)C(C)(C)C)cc1 (stereo not shown) [Compound 24]
- Mortality rate ([1]; 60 ppm): 0%

SMILES: CC(C)C(CNC(=O)c1nc2ccccc2s1)NC(=O)OCC(F)(F)F (stereo not shown) [Compound 38]
- Mortality rate ([1]; 60 ppm): 0%

SMILES: CCOc1ccc([Si](C)(C)CCCc2ccc(F)c(Oc3ccccc3)c2)cc1 [Silafluofen, reference compound]
- mortality at 95 ppm ([1]; Laodelphax striatellus, 144 h, 95 ppm, read-out: Mortality rate): 95%

SMILES: CCc1ccc(C(=O)NN(C(=O)c2cc(C)cc(C)c2)C(C)(C)C)cc1 [Tebufenozide]
- Mortality rate [2]: 95%

SMILES: CN(C)C(CSC(N)=O)CSC(N)=O [Cartap]
- Mortality rate [2]: 95%
- Mortality rate [4]: 95%
- Mortality rate [5]: 95%

SMILES: CCOc1ccc(C(C)(C)COCc2cccc(Oc3ccccc3)c2)cc1 [Etofenprox, reference compound]
- mortality at 100 ppm [1, 7]: 95%

SMILES: Cc1cc(C(F)(C(F)(F)F)C(F)(F)F)ccc1NC(=O)c1cccc(I)c1C(=O)NC(C)(C)CS(C)(=O)=O [Compound 101, reference compound]
- Mortality rate [2]: 95%

SMILES: CC(CNC(=O)c1cc2ccccc2o1)NC(=O)OCC(F)(F)F (stereo not shown) [Compound 40]
- Mortality rate ([1]; 60 ppm): 0%

SMILES: CN/C(=N\[N+](=O)[O-])NCc1cnc(Cl)s1 [Clothianidin, reference compound]
- mortality at 40 ppm ([1]; Laodelphax striatellus, 144 h, 40 ppm, read-out: Mortality rate): 95%

SMILES: CC(C)C(CNC(=O)c1nc2ccc(F)cc2s1)NC(=O)OCC(F)(F)F (stereo not shown) [Compound 37]
- Mortality rate ([1]; 60 ppm): 0%

SMILES: N#Cc1ccc(CC(=NNC(=O)Nc2ccc(OC(F)(F)F)cc2)c2ccc(C(F)(F)F)cc2)cc1 [Compound 103, reference compound]
- Mortality rate [2]: 90%

SMILES: CCC(C)c1ccccc1OC(=O)NC (stereo not shown) [BPMC, reference compound]
- Mortality rate ([1]; 500 ppm): 95%

SMILES: Cc1ccc(C(=O)NC(CNC(=O)OCC(F)(F)F)C(C)C)cc1 (stereo not shown) [Compound 6, N-(2,2,2-trifluoroethyloxycarbonyl)-N′-(4-methylbenzoyl)-3-methyl-1,2-butanediamine]
- Mortality rate [2]: 0%
- mortality at 60 ppm [1, 6]: 0%
- Mortality rate [4]: 0%
- Mortality rate [5]: 0%

SMILES: CC(C)N1C(=O)N(c2ccccc2)CS/C1=N\C(C)(C)C [Buprofezin, reference compound]
- mortality at 200 ppm ([1]; Laodelphax striatellus, 144 h, 200 ppm, read-out: Mortality rate): 90%

SMILES: CC[S+]([O-])c1c(C#N)nn(-c2c(Cl)cc(C(F)(F)F)cc2Cl)c1N (stereo not shown) [Ethiprole, reference compound]
- mortality at 100 ppm [1, 7]: 95%

SMILES: CC1=NNC(=O)N(/N=C/c2cccnc2)C1 [Pymetrozine]
- Mortality rate [3]: 95%

SMILES: CN/C(=N/CC1CCOC1)N[N+](=O)[O-] (stereo not shown) [Dinotefuran, reference compound]
- mortality at 67 ppm ([1]; Laodelphax striatellus, 144 h, 67 ppm, read-out: Mortality rate): 95%

SMILES: CCOC(=O)CCN(SN(C)C(=O)Oc1cccc2c1OC(C)(C)C2)C(C)C [Benfuracarb]
- Mortality rate [3]: 95%

SMILES: CN1COCN(Cc2cnc(Cl)s2)/C1=N\[N+](=O)[O-] [Thiamethoxam]
- Mortality rate [3]: 95%

SMILES: CCC(C)C(CNC(=O)c1cc2ccccc2o1)NC(=O)OCC(F)(F)F (stereo not shown) [Compound 32]
- Mortality rate ([1]; 60 ppm): 5%

SMILES: CC(C)(C)C(CNC(=O)c1cc2ccccc2o1)NC(=O)OCC(F)(F)F (stereo not shown) [Compound 31]
- Mortality rate ([1]; 60 ppm): 0%

SMILES: N#Cc1nn(-c2c(Cl)cc(C(F)(F)F)cc2Cl)c(N)c1[S+]([O-])C(F)(F)F (stereo not shown) [Fipronil]
- Mortality rate [3]: 95%

SMILES: CCC(C)C(CNC(=O)c1nc2ccccc2s1)NC(=O)OCC(F)(F)F (stereo not shown) [Compound 33]
- Mortality rate ([1]; 60 ppm): 0%
